From PubChem BioAssay (NCI)
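The compound was tested at five concentrations on cells cultured in 96-well plates, with a 48-hour exposure period. The concentration for 50% growth inhibition is given as GI50. TGI: total growth inhibition.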

System: NCI-H322M lung
Assay: NCI-60 cell line screen, 48 h

Compound: Cc1ccc(NC(=O)c2ccc(CN3CCN(C)CC3)c(I)c2)cc1Oc1ccc(-c2[nH]nc3ncnc(N)c23)cc1
- GI50: 1910 nM
- TGI: 3390 nM
